Experimental data taken from PMC4336329 (PLoS ONE, 2015).
Out of some 310,000 compounds screened, about 14,000 (4.5%) showed an effect of 50% or more. Effects have a minus sign here. The list shows a part of the results.

Target: human ether-à-go-go-related gene (hERG) potassium channel (human, UniProt Q12809)
Assay: primary screen, population patch clamp on CHO cells stably expressing hERG
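Note: peak tail current of the secondary pulse compared with the same well before compound.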

Chain of human ether-à-go-go-related gene (hERG) potassium channel (Q12809 whole entry, looked up): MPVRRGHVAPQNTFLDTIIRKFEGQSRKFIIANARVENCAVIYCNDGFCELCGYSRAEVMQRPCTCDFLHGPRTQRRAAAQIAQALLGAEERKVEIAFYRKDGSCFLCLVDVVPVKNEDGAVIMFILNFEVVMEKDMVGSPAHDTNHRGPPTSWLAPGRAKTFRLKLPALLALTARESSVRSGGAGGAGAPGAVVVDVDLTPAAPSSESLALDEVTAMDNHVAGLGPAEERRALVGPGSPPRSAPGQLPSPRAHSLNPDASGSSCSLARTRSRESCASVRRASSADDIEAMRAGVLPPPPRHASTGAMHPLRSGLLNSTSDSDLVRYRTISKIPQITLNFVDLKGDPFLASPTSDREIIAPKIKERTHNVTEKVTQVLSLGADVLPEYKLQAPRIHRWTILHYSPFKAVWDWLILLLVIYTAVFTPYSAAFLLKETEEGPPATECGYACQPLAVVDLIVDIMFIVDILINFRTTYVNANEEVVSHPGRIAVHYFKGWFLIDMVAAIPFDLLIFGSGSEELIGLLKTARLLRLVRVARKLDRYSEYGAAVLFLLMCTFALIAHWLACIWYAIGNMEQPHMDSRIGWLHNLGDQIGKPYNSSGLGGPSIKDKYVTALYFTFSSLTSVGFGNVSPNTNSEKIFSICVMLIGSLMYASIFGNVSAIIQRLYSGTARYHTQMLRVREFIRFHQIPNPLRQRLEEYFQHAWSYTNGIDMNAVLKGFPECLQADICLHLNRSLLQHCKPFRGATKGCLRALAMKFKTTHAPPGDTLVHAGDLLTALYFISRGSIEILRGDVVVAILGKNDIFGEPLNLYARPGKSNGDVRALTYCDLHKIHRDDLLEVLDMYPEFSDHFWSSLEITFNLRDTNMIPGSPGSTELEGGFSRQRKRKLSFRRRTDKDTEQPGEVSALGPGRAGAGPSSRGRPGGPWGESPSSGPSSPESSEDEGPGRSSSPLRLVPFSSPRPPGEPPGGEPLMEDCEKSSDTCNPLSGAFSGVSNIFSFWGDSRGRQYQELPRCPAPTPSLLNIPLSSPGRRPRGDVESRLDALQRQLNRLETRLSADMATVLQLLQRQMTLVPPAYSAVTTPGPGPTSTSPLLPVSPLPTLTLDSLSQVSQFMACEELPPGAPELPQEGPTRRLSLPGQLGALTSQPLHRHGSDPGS

Structure (SMILES)	hERG current change (%, negative = inhibition) at 10uM [%]
COc1ccc(S(=O)(=O)Nc2ccc(Cc3ccncc3)cc2)cc1C	-33
CC1=CC(=C(C#N)C#N)c2ccccc2N1C	-7.08
O=C(NCCc1ccccn1)C1CCCN(S(=O)(=O)Cc2ccccc2)C1 (stereo not drawn)	9.26
CCOc1ccc(NC(=O)c2ccc(NC(=S)NC3CC3)cc2)cc1	3.59
CC(Sc1nnnn1-c1cccc(F)c1)C(=O)NC1CCCC1 (stereo not drawn)	-13.4
Cc1nc2ccccc2c(=O)n1/N=C/c1ccc(O)c(O)c1O	1.4
Cc1cc(OC(C)C(=O)NCc2ccccn2)c2c(C)c(C)c(=O)oc2c1 (stereo not drawn)	8.8
C/C(=N\OCC(=O)Nn1c(=O)[nH]c2ccccc2c1=O)c1ccccc1	7.83
CCn1c(C(=O)O)c(CC(=O)Nc2cccc(C(F)(F)F)c2)c2ccccc21	15.8
C/C(=N\NC(=S)NCc1ccccc1)c1ccc(Cl)s1	18
COc1cccc(NC(=O)Cn2cc(C=O)c3ccccc32)c1	18.4
CCC(C)c1ccccc1N1CC(C(=O)Nc2cccc(S(=O)(=O)N3CCOCC3)c2)CC1=O (stereo not drawn)	-13.9
CC(NC(=O)c1ccco1)C(=O)OCc1cccc(Cl)c1 (stereo not drawn)	-13.9
Cc1occc1-c1nnc(SCC(N)=O)o1	13
O=C(CSc1n[nH]c(-c2ccco2)n1)Nc1ccc(Br)cc1	0.637
CN1CCN(C(=O)CSc2nnc(COc3ccccc3)o2)CC1	7.53
COC(=O)c1nc2n(n1)C(c1ccc(OC)c(OC)c1OC)C1=C(CCCC1=O)N2 (stereo not drawn)	5.21
N#Cc1cc(C(=O)c2cc(Br)ccc2O)cn(C2CCCCC2)c1=O	7.25
O=C(/C=C/c1ccc2c(c1)OCO2)NC1CCCC1	7.63
COc1cccc(C2=NOC(C(=O)NCc3cccs3)C2)c1 (stereo not drawn)	2.09
CCOc1ccc(CCN2C(=O)c3cccnc3C2=O)cc1OCC	12.8
Cn1nnc(NC(=S)NC(=O)c2ccccc2)n1	-0.45
Cc1nnsc1C(=O)Nc1cccc(Cl)c1C	9.32

Structure (SMILES)	hERG current change (%, negative = inhibition) at 10uM [%]
COc1ccc(Cl)cc1NC(=O)CSc1nc(C)cc(C)n1	-32.6
CN1CCCC(CC2Oc3ccccc3Sc3ccccc32)C1.O=C(O)C(=O)O (stereo not drawn)	-67
O=[N+]([O-])c1ccccc1S(=O)(=O)Nc1cccc(-c2ccc(N3CCOCC3)nn2)c1	-8.23
O=C(Nc1ccc2c(c1)nc1n2CCCCC1)c1cc(S(=O)(=O)N2CCOCC2)ccc1Cl	-15.5
COc1ccccc1Nc1nc(NCCCN(C)C)nc(N)c1[N+](=O)[O-]	-46.3
CCNc1ccc(C(=O)OCC)cc1NC(=O)c1cccc(N(C)C)c1	-24.6
N#Cc1c(C(F)(F)F)cc(C2CC2)nc1N1CCCC1	21.7
NC(=O)C1=C[C@H](c2ccc(C(F)(F)F)cc2)C[C@H](OCCCCO)O1	-4.54
CC(Sc1ccc(Cl)cc1)C(=O)NNC(=O)c1csc(N2CCOCC2)n1 (stereo not drawn)	-33.9
CCCc1nnc(NC(=O)CN2C(=O)c3ccccc3C2=O)s1	-5.06
Cc1cccn2cc(CCNC(=O)c3ccco3)nc12	-4.3
CC(NC(=O)COc1ncnc2cc([N+](=O)[O-])ccc12)c1ccccc1 (stereo not drawn)	-34
CSc1cc(CS(=O)(=O)c2ccccc2)nc(-c2ccccc2)n1	5.46
Nc1nnc(-c2cccnc2)s1	-2.17
N#Cc1nc(-c2ccc(F)cc2)oc1N1CCCCC1	8.29
Cc1cc(/C=C2\NC(=O)NC2=O)c(C)n1-c1ccc(N2CCOCC2)cc1	3.46
O=C(Nc1cccc2ccccc12)/C(=C/c1cccc([N+](=O)[O-])c1)NC(=O)c1cccs1	-67.7
CCOC(CNC(=O)C1CCN(S(=O)(=O)c2ccc3nc4c(c(C(=O)O)c3c2)CCCCC4)CC1)OCC	16.2
N#CCCN(C(=O)COC(=O)c1ccc2ccccc2n1)c1ccccc1	12.1
O=C(O)CC1c2ccccc2S(=O)(=O)N1Cc1ccccc1 (stereo not drawn)	9.1
Cc1cccc(C(=O)OC(C)CN2CCN(C)CC2)c1.Cl (stereo not drawn)	-23.3
O=C1CCc2cc(S(=O)(=O)N3CCC(C(=O)NCCC4=CCCCC4)CC3)ccc2N1	6.45
Cc1onc(-c2c(Cl)cccc2Cl)c1C(=O)c1ccc(F)cc1	6.04

Structure (SMILES)	hERG current change (%, negative = inhibition) at 10uM [%]
CCCCNCc1cc(Cl)c(OCCC)c(OCC)c1.Cl	-19.9
COc1cccc(CNc2nc(-c3cccnc3)nc3ccccc23)c1	-15.6
COc1ccccc1NC(=O)C1=C(C)Nc2nnnn2C1c1ccncc1 (stereo not drawn)	-12.4
CCc1nc2ccc(C(=O)N3CCN(CC)CC3)cc2nc1CC	24.1
CN(C)C(CNC(=O)c1ccc2nc[nH]c2c1)c1ccccc1 (stereo not drawn)	16.9
Cc1cc(OCC(=O)c2ccc(Br)cc2)ccc1N1C(=O)CCC1=O	7.76
CC1CN(S(=O)(=O)c2cn(C)c(=O)n(C)c2=O)CC(C)O1 (stereo not drawn)	8.91
Cc1cc(Nc2ccc(C)c(Cl)c2)nc(N2CCOCC2)n1	-8.43
CCC(=O)Nc1nnc(SCC(=O)Nc2ccc(F)cc2)s1	-21.3
CC(C)(C)c1ccc(C(=O)NNC(=S)NCc2ccco2)cc1	9.53
CCn1c(SCc2nc3ccccc3s2)nnc1-c1ccccc1	-11
CCN(Cc1ccccc1)C(=O)CCS(=O)(=O)c1cc2c(cc1Cl)NC(=O)CO2	-50.7
COc1cc(NC(=O)CSc2ncccc2C(=O)OC(C)C)cc(OC)c1	-8.73
COc1ccc(-c2nc(NC(=O)CCNC(=O)c3ccco3)sc2C)cc1	-11.1
COc1cc(/C=C/c2nc3ccccc3c(=O)n2-c2cccc(O)c2)ccc1O	-12.3
CCc1c(C(=O)c2ccc(Cl)cc2)oc2c(C)c3oc(=O)cc(C)c3cc12	-0.731
CN(C)S(=O)(=O)Nc1cc(Cl)cc(Cl)c1	-0.782
O=C(O)c1cccc(N/C(=N\S(=O)(=O)c2ccccc2)c2ccccc2)c1	-1.41
COc1ccc(NC(=O)CN2C(=O)COc3ccc(C)cc32)c(OC)c1	20.2
CN(Cc1cccc(C(F)(F)F)c1)Cc1nc(-c2cnccn2)no1	5.97
COC(=O)[C@H](Cc1ccccc1)NC(=O)N1CC(C)OC(C)C1 (stereo partly drawn)	-2.77
C/C(=N\NC(=O)CNC(=O)c1cccc(F)c1)c1ccc2ccccc2c1	-24.4
CCCCNC(=O)c1ccccc1NC(=O)C1=C(C)OCCS1	-4.94

Structure (SMILES)	hERG current change (%, negative = inhibition) at 10uM [%]
CC(C)NC(=O)CSc1nc(-c2cccs2)cc(-c2ccccc2)c1C#N	8.14
CC(C)C1Oc2ccccc2N(CC(=O)N2CCOCC2)C1=O (stereo not drawn)	12
CCCc1cc(=O)oc2cc(C)cc(OCC(=O)NC3CC3)c12	-5.57
O=C(/C=C/c1ccc(Br)cc1)N1CCN(c2cccc(C(F)(F)F)c2)CC1	-8.52
CCOc1ccc(S(=O)(=O)Nc2ccc(C(=O)NCC(c3ccco3)N(C)C)cc2)cc1 (stereo not drawn)	-19.3
COc1ccc(N(C(C)C(=O)NC2CCCCCC2)S(C)(=O)=O)cc1 (stereo not drawn)	-4.43
Cc1cccc(-c2nnc(SCC(=O)N3c4ccccc4CCc4ccccc43)n2C)c1	-25.8
CCOC(=O)C(C)n1cnc2c(nnn2-c2ccc(F)cc2)c1=O (stereo not drawn)	-9.26
Cc1cc(C)cc(OCCCC(=O)O)c1	17.2
Clc1nnc(N/N=C/c2ccccc2)c2ccccc12	-7.44
CC(=O)c1cccc(NC(=O)CN(c2cccc(F)c2)S(C)(=O)=O)c1	-5.36
CN(C)CCN(Cc1cc2cc3c(cc2[nH]c1=O)OCCO3)C(=S)NCC1CCCO1 (stereo not drawn)	23
COc1cc([N+](=O)[O-])ccc1NC(=O)CN(C)C	-15.9
COc1cc(OC)nc(NC(=O)C(C)C)n1	11.4
Cc1ccc(C(=O)OC2CCN(c3ccc([N+](=O)[O-])cc3)CC2)cc1	-1.78
Cc1c(O)cc2c(c1O)C(=O)CC(c1ccc(O)cc1)O2 (stereo not drawn)	1.64
CCOc1ccccc1/C=N/NC(=O)C[n+]1ccccc1.[Cl-]	1.63
CCN(CC)C(=O)Cn1cc(C(=O)C(=O)N2CCN(C)CC2)c2ccccc21	21.1
CNC(=O)C1CC(=O)N(c2ccc(OCC(=O)Nc3ccc(OC)cc3)cc2)C1 (stereo not drawn)	8.32
CCc1ccc(C2=NN(c3ccc(S(N)(=O)=O)cc3)C(c3ccc(F)cc3)C2)cc1 (stereo not drawn)	11
COc1cccc(C(=O)NC(C)CCc2ccccc2)c1 (stereo not drawn)	-3.07
